Reference: PubChem BioAssay AID902 (National Center for Advancing Translational Sciences (NCATS), 2007)
Out of some 130,000 compounds screened, about 1,900 (1.5%) were called active. The shares of active, inactive and inconclusive entries below differ from those in the screen. The call rests on the fitted dose curve; in most records, active means well fitted cell-killing curve with a large enough effect; inconclusive means small, poorly fitted or top-dose-only effect; inactive means no such curve, though single readings can be large or run the other way. A potency beside an inconclusive call is a rough fit, not a confirmed value.

Assay: qHTS Screen for Compounds that Selectively Target Cancer Cells with p53 Mutations: Cytotoxicity of p53ts Cells at the Nonpermissive Temperature; further: nearly all actives have a fitted effect of over 55% in size
Details: H1299-p53A138V viability at 39C, ATP luminescence, 24 h; activity change, negative = cell killing: at 46.1 µM (top of the series)
On the % scale 0 is the no-effect control and ±100 the full control effect; potency means the concentration at half of the fitted maximal effect; tags describe the fitted curve by direction and shape.

Compound | Potency | activity change, negative = cell killing
COc1ccc(CCNC(=O)c2cc3c(=O)n(C)c4cc(Cl)ccc4c3s2)cc1OC | inactive | –
COc1ccc(-c2cc(NCc3ccc(C)cc3)n3cnnc3n2)cc1 | inconclusive: 31.6 µM [cytotoxic, single point] | –
CCOC(=O)c1ccc(N2C(=O)c3[nH]nc(-c4ccccc4)c3C2c2cccs2)cc1 (centres undefined) | inconclusive: 15.8 µM [cytotoxic, single point] | –
COc1ccc(CCNc2nc(SCc3ccccc3Cl)nc3ccccc23)cc1OC | – | inconclusive: -37.3% [cytotoxic]
COc1ccc(NC(=O)Cn2c(=O)n(CCc3ccccc3)c(=O)c3sc4ccccc4c32)cc1 | inconclusive: 1 µM [cytotoxic, full curve, poor fit] | –
Cc1ccccc1NC(=O)Cn1c(=O)n(CCCCC(=O)NCc2ccccc2Cl)c(=O)c2ccccc21 | inconclusive: 31.6 µM [cytotoxic, single point] | –
CCOc1ccc(C(=O)Nc2c(C(N)=O)oc3ccccc23)cc1 | inconclusive: 10 µM [cytotoxic, partial curve] | –
COc1ccc2c(c1)CCc1c(C(=O)N3CCCCCC3)noc1-2 | inconclusive: 12.6 µM [cytotoxic, partial curve] | –
CCOc1ccc(OCC)c(NC(=O)CN(c2ccc(C)cc2)S(=O)(=O)c2c(C)n[nH]c2C)c1 | inconclusive: 20 µM [cytotoxic, single point] | –
Cc1ccc(-c2cc(C(=O)NCC3CCCO3)no2)cc1 (centres undefined) | inconclusive: 12.6 µM [cytotoxic, partial curve] | –
CCOC(=O)[C@@H](O)Cc1cnc2ccccc2n1 | – | inactive: -3.16% [at 9.22 µM]
CS(=O)(=O)c1nc(-c2ccco2)cc(C(F)(F)F)n1 | inconclusive: 31.6 µM [cytotoxic, single point] | –
COc1ccc2nc(Nc3nc(C)c(C(C)=O)s3)sc2c1 | inconclusive: 31.6 µM [cytotoxic, single point] | –
COC1=CC(C)C2CC3OC(=O)CC4C(C)=C(OC)C(=O)C([C@]2(C)C1=O)[C@]34C (some centres undefined) | inactive | –
CCOc1ccc(CCNC(=O)c2ccc(Cn3c(=O)c4cccn4c4cccnc43)cc2)cc1 | inconclusive: 12.6 µM [cytotoxic, partial curve] | –
C[C@@H]1CN(CCCn2c3ccccc3c3ccccc32)C[C@H](C)N1 | active: 25.1 µM | –
Cc1nn(-c2nc3ccccc3[nH]2)c(N)c1-c1ccccc1 | inconclusive: 15.8 µM [cytotoxic, single point] | –
CCOC(=O)c1cnc(-n2nc(C)cc2C)nc1NCCc1ccccc1 | inconclusive: 31.6 µM [cytotoxic, single point] | –
Cc1cc(=O)n2c(C(=O)Nc3ccc(C)c(C)c3)c(C(=O)Nc3ccccc3)sc2n1 | inconclusive: 31.6 µM [cytotoxic, single point] | –
O=C(CN1C(=O)C2CCCCN2c2ccc(C(=O)N3CCCC3)cc21)NCc1ccccc1 (centres undefined) | inconclusive: 0.01 µM [cytotoxic, full curve, poor fit] | –
COc1ccc(-c2cc(C(F)(F)F)nc(S(=O)(=O)CCCC(=O)Nc3ccccc3C(F)(F)F)n2)cc1OC | active: 5.01 µM | –
CCOC(=O)c1cc(-c2ccc(C)cc2)n(CC(=O)Nc2cccc(C(C)=O)c2)c1C | inconclusive: 0.005 µM [cytotoxic, full curve, poor fit] | –
Cc1ccc(-c2nc(-c3ccccn3)no2)cc1Cl | active: 2.51 µM | –

Compound | Potency | activity change, negative = cell killing
c1ccc(-c2nn3c(C4COc5ccccc5O4)nnc3s2)cc1 (centres undefined) | inactive | –
COc1ccccc1N1CCN(C(=O)CCSCc2ccccc2F)CC1 | inconclusive: 12.6 µM [cytotoxic, partial curve] | –
O=C(Nc1cccc(F)c1)N1CC[C@@]2(CCCN(C(=O)c3ccncc3)C2)C1 | inactive | –
Cc1ccc2c(=O)cc(C(=O)Nc3nnc(CC(C)C)s3)oc2c1C | inactive | –
CCOC(=O)c1sc(NC(=O)c2ccc(C)o2)nc1C | active: 7.94 µM | –
Cn1c(C(=O)NCc2cccs2)cc2c(=O)n(C)c3ccccc3c21 | inactive | –
Cc1ccc(C)n1-c1nnc(N2CCC(C(=O)Nc3ccccc3Br)CC2)s1 | inconclusive: 31.6 µM [cytotoxic, single point] | –
COc1ccc2c(c1)Cc1sc(NC(=O)c3ccccc3Br)nc1-2 | inconclusive: 12.6 µM [cytotoxic, single point] | –
COc1ccc(N2Cc3cccc(C(=O)Nc4ccc(C(C)C)cc4)c3C2=O)cc1 | active: 3.98 µM | –
COc1ccc(CNS(=O)(=O)c2cc(C(=O)Nc3cc(Cl)cc(Cl)c3)ccc2F)cc1 | inconclusive: 20 µM [cytotoxic, single point] | –
Cc1cc(C)c(/C=C2/C(=O)Nc3ccccc32)[nH]1 | inconclusive: 2.51 µM [cytotoxic, full curve] | –
COc1cccc(C(=O)Nc2ccc3oc(-c4ccc5ccccc5c4)nc3c2)c1 | inconclusive: 12.6 µM [cytotoxic, partial curve] | –
CCOc1ccc(CCNC(=O)CCc2c(C)nc3c4c(C)cc(C)nc4nn3c2C)cc1 | inconclusive: 1 µM [cytotoxic, partial curve] | –
CCCCN1C(=O)c2[nH]nc(-c3ccccc3O)c2C1c1cccc(OCc2ccccc2)c1 (centres undefined) | active: 25.1 µM | –
CCc1ccc(NC(=O)c2cc(C(C)=O)n3ccccc23)cc1 | inconclusive: 5.01 µM [cytotoxic, partial curve] | –
Clc1cccc(N2CCN(c3ncnc4c3nc3n4CCCCC3)CC2)c1 | active: 12.6 µM | –
Cc1ccc(-c2nc3cc(C(C)C)ccc3o2)cc1NC(=O)c1cc2ccccc2o1 | inactive | –
CCOc1ccccc1CNS(=O)(=O)c1ccc2c(c1)CCCN2C(C)=O | inconclusive: 31.6 µM [cytotoxic, single point] | –
COc1cccc(NC(=O)CSc2nc3c(oc4ccccc43)c(=O)n2Cc2ccco2)c1 | inconclusive: 31.6 µM [cytotoxic, single point] | –
Cc1cc(C(=O)CN2C(=O)c3ccccc3C2=O)c(C)n1Cc1cccs1 | inconclusive: 6.31 µM [cytotoxic, partial curve] | –
Cc1ccc(Cn2c(C(=O)O)c(CNCc3ccccc3Cl)c3ccc(C)cc32)cc1 | inconclusive: 25.1 µM [cytotoxic, single point] | –
O=C(Nc1cccs1)Nc1cc(C(F)(F)F)ccc1Cl | active: 25.1 µM | –
COc1cc(-c2noc(CN3CCN(c4ccccc4)CC3)n2)cc(OC)c1OC | active: 25.1 µM | –

Compound | Potency | activity change, negative = cell killing
Cc1cn2c(=O)cc(COC(=O)c3cccc(NC(=O)COc4ccccc4Cl)c3)nc2s1 | inactive | –
COCCn1c(SCC(=O)Nc2ncc(C)s2)nc2sc3c(c2c1=O)CCC3 | inactive | –
Cc1cccn2cc(-c3ccc(F)cc3)nc12 | inconclusive: 12.6 µM [cytotoxic, single point] | –
O=C(NC1CCCCCC1)c1ccc(N2CCCC2=O)cc1 | inconclusive: 20 µM [cytotoxic, partial curve] | –
COCCNc1nc(-c2ccc(C(=O)N(C)C)cc2)nc2ccccc12 | inconclusive: 12.6 µM [cytotoxic, single point] | –
Fc1ccc(-n2ncc3c(NCCCN4CCOCC4)ncnc32)cc1 | inconclusive: 3.98 µM [cytotoxic, partial curve, poor fit] | –
O=C(CSc1n[nH]c(=O)n1C1CC1)Nc1cc(Cl)ccc1Oc1ccccc1 | inconclusive: 12.6 µM [cytotoxic, partial curve] | –
CC(C)c1cc(-c2nc(-c3cccc(Cl)c3)no2)n[nH]1 | inconclusive: 25.1 µM [cytotoxic, single point] | –
Cc1nn(CC(=O)NCc2ccc(N(C)C)cc2)c(=O)c2nn(-c3ccccc3)c(C)c12 | inactive | –
COc1ccccc1CCNC(=O)C1CCN(c2nnc(C)c3c(C)n(-c4ccc(C)cc4)nc23)CC1 | inconclusive: 31.6 µM [cytotoxic, single point] | –
Cn1c(C(=O)NCc2cccc(Cl)c2)cc2oc3ccccc3c21 | inconclusive: 15.8 µM [cytotoxic, partial curve, poor fit] | –
CCC(CC)C(=O)Nc1cc(-c2nc3cccnc3s2)ccc1C | inconclusive: 15.8 µM [cytotoxic, single point] | –
Cc1cc(C(=O)Nc2nc3c(s2)CCCC3)no1 | inconclusive: 10 µM [cytotoxic, partial curve] | –
CN=c1nc(-c2ccccc2)n(-c2ccccc2)s1 | inconclusive: 10 µM [cytotoxic, single point] | –
COc1ccc(Oc2ncc3nc(-c4cccc(C#N)c4)c(=O)n(CCC#N)c3n2)cc1 | inactive | –
CCS(=O)(=O)Nc1ccc(-c2cn3c(C)csc3n2)cc1 | inconclusive: 12.6 µM [cytotoxic, partial curve] | –
CCSc1nc2ccccc2c(OCc2cc(C(=O)OC)ccc2OC)c1C(=O)OC | inactive | –
COc1cccc(C(=O)NCCn2ccc3ccccc32)c1 | inconclusive: 15.8 µM [cytotoxic, single point] | –
Cc1ccc(CSc2nc3ccncc3n2Cc2nc(-c3ccccc3C)oc2C)cc1 | active: 7.94 µM | –
CCCNC(=O)c1c(NC(=O)c2ccccc2)sc2c1CCC(C(C)(C)C)C2 (centres undefined) | inactive | –
Cn1c(CCNC(=O)c2ccco2)nc2cc(NC(=O)c3ccco3)ccc21 | inconclusive: 12.6 µM [cytotoxic, single point] | –
Cc1ccc(OCC(=O)Nc2ccc3nn(-c4ccc(C)cc4)nc3c2)cc1 | inactive | –
O=C(Nc1ccc2c(c1)Cc1ccccc1-2)c1ccco1 | inconclusive: 10 µM [cytotoxic, partial curve] | –
